PubChem BioAssay AID651820 (National Center for Advancing Translational Sciences (NCATS), 2012)
Where “and” joins values, the source holds several entries; their conditions need not be identical. Equal values may be shown once. Screen size: about 340,000 compounds; about 12,000 (3.5%) were called active. Inconclusive results, whose numbers are uncertain, are shown with a selection of clear calls. Calls come from the whole dose curve; as a rule, active = well fitted inhibition curve with a large enough effect; inconclusive = small, poorly fitted or top-dose-only effect, or another doubt; inactive = no such curve, though single readings can be large or run the other way. Potencies of inconclusive entries are doubtful fits and often do not repeat.
% is set by controls: 0 for no effect and ±100 for the full control effect; potency is the fitted concentration of half-maximal effect; tags give direction and shape of the fitted curve.

Test: qHTS Assay for Inhibitors of Hepatitis C Virus (HCV)
Conditions: Huh7.5.1 HCVcc-Cre (HCVcc is cell-culture hepatitis C virus) infection, luciferase reporter, 44 h; activity change, negative = inhibition: at 41.8 µM (top of the series) unless noted
In short: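 Seed cells (1,000/well) for 4 h; treat with compound and infect with HCVcc-Cre, moi about 0.5. Incubate 44 h, then detect luciferase activity.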
For `Cc1ccc(NS(=O)(=O)c2cc(-c3n[nH]c(=O)c4ccccc34)ccc2C)cc1`, the Potency was inconclusive: 12.6 µM [inhibitor, partial curve].
For `CCc1ccc(Nc2n[n+](C)c(-c3ccncc3)s2)cc1`, the Potency was inconclusive: 8.91 µM [inhibitor, partial curve].
In the case of `COCCn1c(SCC(=O)NC(=O)NC2CCCCC2)nc2ccccc2c1=O`, the Potency is reported as inconclusive: 31.6 µM [inhibitor, single point].
With `COc1ccc(C)cc1NC(=O)c1ccc(NS(=O)(=O)c2cccs2)cc1` the Potency was inconclusive: 22.4 µM [inhibitor, single point].
With `CCOc1cc(NC(=O)C2CC2)c(OCC)cc1NC(=O)c1cc(OC)c(OC)c(OC)c1` the Potency was inconclusive: 1.78 µM [inhibitor, full curve, poor fit].
For `C/C(=N\NC(=O)c1cccc(N/N=C(\C)c2cc(O)ccc2O)c1)c1cc(O)ccc1O`, the Potency was inconclusive: 14.1 µM [inhibitor, single point].
In the case of `NS(=O)(=O)c1ccc(CCNC(=O)/C=C/c2cccc([N+](=O)[O-])c2)cc1`, the “activity change, negative = inhibition” value is reported as inactive: -15.4%.
In the case of `CCCCCC(N)=O`, the “activity change, negative = inhibition” value is reported as inactive: 5.14%.
With `CCN(CC)C(=S)NC(=O)c1cc(OC)c(OC)c(OC)c1` the Potency was inconclusive: 5.01 µM [inhibitor, single point].
For `CCC(C(=O)OCC(=O)Nc1ccc(C(=O)Nc2ccc(OC)cc2)cc1)c1ccccc1` (stereo unspecified), the Potency was inconclusive: 3.55 µM [inhibitor, full curve].
For `O=C(CCC(=O)OCC(=O)c1cccc([N+](=O)[O-])c1)Nc1cccc(Cl)c1Cl`, the “activity change, negative = inhibition” value was inactive: 12.5%.
For `COc1ccccc1C(=O)Nc1cccc2c1CCCC2`, the Potency was inconclusive: 11.2 µM [inhibitor, partial curve].
For `CCCn1c(SCC(=O)NC(=O)NCc2ccco2)n[nH]c1=O`, the “activity change, negative = inhibition” value was inactive: 13.5%.
In the case of `Cc1cc(C(=O)NN=C2CCCCCCC2)c2ccccc2n1`, the “activity change, negative = inhibition” value is reported as inactive: -4.87%.
In the case of `Cc1ccc(S(=O)(=O)CCC(=O)Nc2nc(C(C)(C)C)cs2)cc1`, the “activity change, negative = inhibition” value is reported as inactive: -20.6%.
For `COc1ccc(Br)cc1CNC(=O)C1CCCN(S(=O)(=O)N2CC(C)CC(C)C2)C1` (stereo unspecified), the Potency was inconclusive: 22.4 µM [inhibitor, single point].
In the case of `CCC(Oc1ccccc1)C(=O)Nc1ccccc1N1CCCCC1` (stereo unspecified), the Potency is reported as inconclusive: 22.4 µM [inhibitor, single point].
In the case of `COc1ccc(C(=O)C=CNNC(=O)c2ccc(Cl)cc2)cc1`, the Potency is reported as active: 11.2 µM.
In the case of `CCN(C(=O)c1cccc(NC(=O)c2ccccc2)c1)C1CCCCC1`, the Potency is reported as inconclusive: 31.6 µM [inhibitor, single point].
With `Cc1cc2c(C)nc(N/N=C/c3ccc(F)cc3)nc2o1` the Potency was inconclusive: 31.6 µM [inhibitor, single point].
For `Cc1cc(NC(=O)C(C)SCC(=O)Nc2cc(C(F)(F)F)ccc2N2CCCCC2)no1` (stereo unspecified), the Potency was inconclusive: 3.16 µM [inhibitor, single point].
With `C=CCn1cnc2scc(-c3ccc(CC)cc3)c2c1=O` the Potency was inconclusive: 3.55 µM [inhibitor, single point].
For `FC(F)(F)c1ccc(C2[C@H]3CN(Cc4ccc(-c5ccccc5)cc4)[C@H](c4ccccc4)C34CC2(c2ccccc2)C4)cc1` (stereo partly specified), the activity change, negative = inhibition was inactive: -1.62% [at 8.37 µM].
With `COc1ccc2nc(NC(=O)c3ccoc3C)sc2c1` the Potency was active: 14.1 µM.
With `O=C(CSc1nnc(Cn2c(=O)sc3ccccc32)n1-c1ccccc1)N1CCCC1` the “activity change, negative = inhibition” value was inactive: 4.31%.
In the case of `CN(C(=O)CSc1nc(N)c2c3c(sc2n1)CSC(C)(C)C3)c1ccccc1`, the Potency is reported as inconclusive: 8.91 µM [inhibitor, partial curve].
With `Cc1ccc(C)c(N2CCN(CCCNC(=O)Cn3cccc3C(=O)c3ccccc3C)CC2)c1` the Potency was active: 11.2 µM.
In the case of `O=C(Cc1ccccc1Cl)NCc1cccnc1`, the Potency is reported as inconclusive: 31.6 µM [inhibitor, single point].
With `Cc1ccc(NC(=O)c2ccc(-n3cccn3)c([N+](=O)[O-])c2)cc1` the Potency was inconclusive: 8.91 µM [inhibitor, partial curve, poor fit].
For `CC(C)(C)C1CCC(=NNC(=O)CN(c2ccccc2)S(=O)(=O)c2ccccc2[N+](=O)[O-])CC1` (stereo unspecified), the Potency was “inactive”.
In the case of `Cc1nc(-c2ccccc2)sc1C1(C)CC(c2ccccc2F)=NO1` (stereo unspecified), the “activity change, negative = inhibition” value is reported as inactive: 12.3%.
With `OC(COC(c1ccc(Cl)cc1)c1ccc(Cl)cc1)CN1CCCC1` (stereo unspecified) the Potency was active: 5.62 µM.
In the case of `CC(NC(=O)COC(=O)CNC(=O)C1CCCCC1)c1ccccc1` (stereo unspecified), the “activity change, negative = inhibition” value is reported as inactive: 2.83%.
With `CCOc1ccc(C(=O)Nc2c(C(=O)N3CCC(N4CCCCC4)CC3)oc3ccccc23)cc1` the Potency was inconclusive: 11.2 µM [inhibitor, partial curve].
With `CCOC(=O)N1CCN(C(=O)c2ccc3c(c2)N(Cc2cc(C)ccc2C)C(=O)c2ccccc2S3=O)CC1` (stereo unspecified) the Potency was inconclusive: 22.4 µM [inhibitor, single point].
With `Cc1ccc2nc(C)c(C(=O)N/N=C/c3cccc([N+](=O)[O-])c3)cc2c1` the Potency was inconclusive: 10 µM [inhibitor, partial curve].
For `CCCCCN=CC1=C(O)CC(c2ccccc2)CC1=O` (stereo unspecified), the “activity change, negative = inhibition” value was inactive: 9.32%.
With `O=C(COC(=O)CC1CC2CCC1C2)Nc1ccc(Cl)c(S(=O)(=O)N2CCOCC2)c1` (stereo unspecified) the “activity change, negative = inhibition” value was inactive: -19%.
With `COc1ccccc1NS(=O)(=O)c1cc(NC(=O)CNC(=O)c2ccc(C)s2)ccc1Cl` the “activity change, negative = inhibition” value was inactive: -9.4%.
In the case of `Cc1nc(Nc2ccc3c(c2)OCCO3)c2c(C)c(C)sc2n1`, the Potency is reported as inconclusive: 31.6 µM [inhibitor, partial curve, poor fit].
In the case of `O=C(c1cccc(-c2ccc(O)cc2)c1)N1CCN(c2ccc(F)cc2)CC1`, the “activity change, negative = inhibition” value is reported as inactive: -4.05%.
In the case of `COc1ccc(NC(=O)c2cc3ccccn3n2)cc1`, the Potency is reported as inconclusive: 12.6 µM [inhibitor, single point].
With `CCOC(=O)Cc1ccc(NC(=O)c2cccc([N+](=O)[O-])c2)cc1` the “activity change, negative = inhibition” value was inactive: -7.96%.
With `COc1ccc(S(=O)(=O)N2c3cc(Cl)ccc3Oc3nc4ccccc4nc32)cc1` the Potency was inconclusive: 0.891 µM [inhibitor, full curve, poor fit].
With `Cc1cc(C)c2[nH]c(=O)c(CN(Cc3cccnc3)C(=S)NCCCN(C)C)cc2c1` the “activity change, negative = inhibition” value was inactive: -2.8%.
In the case of `NC1=NC(=O)/C(=C/c2ccccc2OS(=O)(=O)c2ccccc2)S1`, the Potency is reported as inconclusive: 3.98 µM [inhibitor, single point].
With `Cc1ccc(C(=O)NNC(=O)COC(=O)COc2ccccc2C#N)cc1` the “activity change, negative = inhibition” value was inactive: -5.48%.
With `CN1C(=O)C(=Cc2cn(CC#N)c3ccccc23)C(=O)N(C)C1=O` the “activity change, negative = inhibition” value was inactive: 16.1%.
In the case of `Cn1nc(C(F)(F)F)cc1C(=O)Nc1ccc(-c2ccno2)cc1`, the Potency is reported as inconclusive: 14.1 µM [inhibitor, partial curve].
In the case of `COc1ccc(SC[C@H](C)CN2CC[C@H](C)CCC2=O)cc1`, the Potency is reported as inconclusive: 22.4 µM [inhibitor, single point].
With `O=C(CCc1ccccc1)N1CCCN(C(=O)CCc2ccccc2)CC1` the “activity change, negative = inhibition” value was inactive: 5.88%.
With `O=C(OCC(=O)N1CCN(C(=O)c2ccco2)CC1)c1cn(-c2ccccc2)nc1-c1ccccc1` the Potency was active: 2.82 µM.
For `CCN(CC)c1ccc(C2C(C(=O)OCCOC)=C(C)NC3=C2C(=O)CC(C)(C)C3)cc1` (stereo unspecified), the Potency was inconclusive: 31.6 µM [inhibitor, single point].
In the case of `COC(=O)c1c(C)[nH]c(C(=O)CN2CCOCC2)c1C`, the Potency is reported as inconclusive: 31.6 µM [inhibitor, single point].
With `COc1ccc(CCCC(=O)N/N=C/c2ccccc2OC)cc1` the “activity change, negative = inhibition” value was inactive: -18.5%.
In the case of `Cc1ccc(C(C2=C(O)CC(C)(C)CC2=O)C2C(=O)CC(C)(C)CC2=O)s1` (stereo unspecified), the “activity change, negative = inhibition” value is reported as inactive: 9.53%.
In the case of `O=C(Nc1nc(-c2ccc(-c3ccccc3)cc2)cs1)C1=COCCO1`, the “activity change, negative = inhibition” value is reported as inactive: 2.36%.
With `CC(=O)c1c(C)[nH]c(C(=O)NCCc2ccc(Cl)cc2)c1C` the “activity change, negative = inhibition” value was inactive: -14.6%.
For `COc1cc2ccccc2cc1C(=O)Nc1ccc(O)cc1`, the Potency was inconclusive: 10 µM [inhibitor, single point].
For `COc1cc(C=O)ccc1OCCCOc1ccc([N+](=O)[O-])cc1`, the Potency was inconclusive: 11.2 µM [inhibitor, single point].
In the case of `COc1cccc(NC(=O)C2CC(=O)n3cnnc3S2)c1` (stereo unspecified), the “activity change, negative = inhibition” value is reported as inactive: 20.3%.
In the case of `Cn1nccc1C(=O)N1CCCC(C(=O)c2ccc(Oc3ccccc3)cc2)C1` (stereo unspecified), the Potency is reported as inconclusive: 31.6 µM [inhibitor, single point].
With `Cc1cccc(NC(=O)c2ccc3ccccc3n2)n1` the Potency was inconclusive: 11.2 µM [inhibitor, partial curve].
For `COC(=O)Nc1ccc(S(=O)(=O)n2cnc3ccccc32)cc1`, the Potency was inconclusive: 31.6 µM [inhibitor, single point].
With `CC(C)NC(=O)C1CCN(C2CCN(C(=O)c3cc4c(s3)CCCCC4)CC2)CC1` the Potency was inconclusive: 14.1 µM [inhibitor, single point].
With `COc1ccc(-c2noc(CSc3nnc(Cc4ccccc4)n3-c3cccc(C)c3)n2)cc1OC` the Potency was inconclusive: 12.6 µM [inhibitor, partial curve, poor fit] and inconclusive: 14.1 µM [inhibitor, partial curve].
For `Cc1ccc(C2(C)NC(=O)N(CC(=O)N3CCc4ccccc43)C2=O)cc1` (stereo unspecified), the “activity change, negative = inhibition” value was inactive: 3.82%.
In the case of `C#CCOCCOCCOCCNc1nc(N2CCN(C(=O)CCCCCCCCCCNC(=O)Cn3cc(CCCCCN)nn3)CC2)nc(N2CCN(C(=O)CCCCCCCCCCNC(=O)[C@H]([C@@H](C)CC)n3cc(CCCCN=C(N)N)nn3)CC2)n1`, the Potency is reported as inconclusive: 14.1 µM [inhibitor, single point].
With `CCOc1ccc(S(=O)(=O)NCc2cccs2)cc1C(C)C` the “activity change, negative = inhibition” value was inactive: -0.838%.
In the case of `Cc1ccc(N2C(=O)c3ccc(C(=O)N4CCN(c5ccccc5F)CC4)cc3C2=O)cc1`, the Potency is reported as “inactive”.
With `O=C(N/N=C\c1ccc(CNS(=O)(=O)c2ccc(Cl)cc2)o1)C(=O)Nc1ccc(Oc2ccccc2)cc1` the Potency was active: 12.6 µM.
